Laboratory results reported in patent publication US20230416410A1 (ZOETIS SERVICES, published 2023).

How the values were obtained:
[1] = target: T1, complement component C1q (in bovine complement preserved serum) (bovine, UniProt Q5E9E3 23-244; Q2KIV9 23-247); assay: cell-based or functional assay
[2] = target: T2, recombinant bovine FcgR1 (bovine, biotin on the BAP tag (BirA)); assay: SPR Biacore, biotinylated receptor on SA sensor, pH 7.4, 15 C
T2 construct: also called bFcgR1; bFcgRI
Method: (§1) A Biacore SPR binding assay was designed to test the affinity of bovine IgG subclasses to bFcgR1, bFcgR2 and bFcgR3. All reported KD's were measured by Biacore (Cytiva, Marlborough, MA, USA) using series S SA sensor. Biotinylated-bovine FcgR1, R2 and R3 were captured on the sensor surface using a modified SA capture method to reach the desired surface density. 10 mM HEPES, 150 mM NaCl, 3 mM EDTA, 0.05% v/v surfactant P20, pH7.4 buffer was used as the running and titration buffer. Various concentrations of bovine CTLA4-Fc fusions or mAbs were titrated and flowed over the receptor surface and affinities were determined using Biacore T200 Evaluation software (Cytiva, Marlborough, MA, USA) with 1:1 binding model. The method of double referencing has been applied where the reference flow cell was subtracted from the flow cell containing immobilized receptors and blank runs containing buffer only were subtracted out from all runs. Flow cells were regenerated using 10 mM Glycine pH1.5. Runs were performed at 15° C.
Biacore methods for bFcgR1, R2, and R3 were performed as described in Examples above. […] Although the two allotypes have different KDs for bFcgR2 and bFcgR3, both wildtype allotypes do bind. All of the mutations, bIgG3Win, bIgG3WinSAS, bIgG3SAS and bIgG3SAP for both the a and b allotypes knocked down binding to bFcgR1, bFcgR2 and bFcgR3 to negligible affinities. […]

[3] = target: T2, recombinant bovine FcgR1; assay: as above; remark: listed apart in the source
T2 sequence (main, as listed by the source): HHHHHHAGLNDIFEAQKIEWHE
Method: as §1
The ability to knock out binding to bovine Fc gamma receptors was evaluated by comparing SPR Biacore bFcgR affinity of bIgG1a and bIgG1b wildtype Fc to the bIgG1a and bIgG1b mutations, described above. All mutations made to bIgG1 are identical for the a and b allotypes. Biacore methods for bFcgR1, R2, and R3 were performed as described in Example 1.

[4] = target: T1, complement component C1q (in bovine …); assay: cell-based or functional assay; remark: listed apart in the source
[5] = target: T1, complement component C1q (in bovine …); assay: cell-based or functional assay; remark: listed apart in the source

T1 sequence (Q5E9E3 23-244, chain 1 of 2): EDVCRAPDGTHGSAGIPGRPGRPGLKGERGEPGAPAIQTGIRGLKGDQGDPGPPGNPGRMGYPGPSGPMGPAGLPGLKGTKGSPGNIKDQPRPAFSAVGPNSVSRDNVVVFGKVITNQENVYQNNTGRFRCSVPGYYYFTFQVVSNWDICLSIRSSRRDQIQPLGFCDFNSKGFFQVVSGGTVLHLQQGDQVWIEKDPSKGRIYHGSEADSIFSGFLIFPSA
T1 sequence (Q2KIV9 23-247, chain 2 of 2, further chain): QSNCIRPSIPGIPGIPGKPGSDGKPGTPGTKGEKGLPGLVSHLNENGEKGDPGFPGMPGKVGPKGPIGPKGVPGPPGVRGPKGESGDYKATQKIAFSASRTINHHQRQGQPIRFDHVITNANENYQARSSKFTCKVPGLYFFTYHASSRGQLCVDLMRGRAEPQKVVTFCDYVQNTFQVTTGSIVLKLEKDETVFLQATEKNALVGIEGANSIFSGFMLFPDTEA

B1: CTLA4 Fc bIgG3a (Fc fusion, canine)
chain: [sequence of about 120 residues not given]TARRPVPTTPKTTIPPGKPTTPKSEVEKTPCQCSKCPEPLGGLSVFIFPPKPKDTLTISGTPEVTCVVVDVGQDDPEVQFSWFVDDVEVHTARTKPREEQFNSTYRVVSALRIQHQDWLQGKEFKCKVNNKGLPAPIVRTISRTKGQAREPQVYVLAPPREELSKSTLSLTCLITGFYPEEIDVEWQRNGQPESEDKYHTTAPQLDADGSYFLYSKLRVNKSSWQEGDHYTCAVMHEALRNHYKEKSISRSPGK
notes: No linker; also called bIgG3a wildtype; CTLA4 Fc bIgG3a wildtype
CDC EC50 Value [1]: 0.021 µg/mL and 0.022 µg/mL | Kd [2]: 9.36 nM

B2: CTLA4 Fc bIgG3aWin (Fc fusion, canine)
chain: [sequence of about 120 residues not given]TARRPVPTTPKTTIPPGKPTTPKSEVEKTPCQCSKCPEAAGALSVFIFPPKPKDTLTISGTPEVTCVVVDVGQDDPEVQFSWFVDDVEVHTARTKPREEQFNSTYRVVSALRIQHQDWLQGKEFKCKVNNKGLPAPIVRTISRTKGQAREPQVYVLAPPREELSKSTLSLTCLITGFYPEEIDVEWQRNGQPESEDKYHTTAPQLDADGSYFLYSKLRVNKSSWQEGDHYTCAVMHEALRNHYKEKSISRSPGK
CDC EC50 Value [1]: 0.03 µg/mL

B3: CTLA4 Fc bIgG1a (Fc fusion, canine)
chain: [sequence of about 120 residues not given]DPRCKTTCDCCPPPELPGGPSVFIFPPKPKDTLTISGTPEVTCVVVDVGHDDPEVKFSWFVDDVEVNTATTKPREEQFNSTYRVVSALRIQHQDWTGGKEFKCKVHNEGLPAPIVRTISRTKGPAREPQVYVLAPPQEELSKSTVSLTCMVTSFYPDYIAVEWQRNGQPESEDKYGTTPPQLDADGSYFLYSRLRVDRNSWQEGDTYTCVVMHEALHNHYTQKSTSKSAGK
notes: No linker; also called bIgG1a wildtype; CTLA4 Fc bIgG1a wildtype
CDC EC50 Value [1]: 0.013 µg/mL and 0.011 µg/mL | Kd [3]: 1.2 nM | CDC EC50 Value [4]: 0.013 µg/mL and 0.034 µg/mL | CDC EC50 Value [5]: 0.01 µg/mL and 0.015 µg/mL

B4: CTLA4 Fc bIgG1aSAP (Fc fusion, canine)
chain: [sequence of about 120 residues not given]DPRCKTTCDCCPPPELPGGPSVFIFPPKPKDTLTISGTPEVTCVVVDVGHDDPEVKFSWFVDDVEVNTATTKPREEQFNSTYRVVSALRIQHQDWTGGKEFKCKVHNEGLSAPIVRTISRTKGPAREPQVYVLAPPQEELSKSTVSLTCMVTSFYPDYIAVEWQRNGQPESEDKYGTTPPQLDADGSYFLYSRLRVDRNSWQEGDTYTCVVMHEALHNHYTQKSTSKSAGK
notes: No linker
Kd [3]: 148 nM

B5: CTLA4 Fc bIgG1aWinSS (Fc fusion, canine)
chain: [sequence of about 120 residues not given]DPRCKTTCDCCPPPEAAGAPSVFIFPPKPKDTLTISGTPEVTCVVVDVGHDDPEVKFSWFVDDVEVNTATTKPREEQFNSTYRVVSALRIQHQDWTGGKEFKCKVHNEGLPSSIVRTISRTKGPAREPQVYVLAPPQEELSKSTVSLTCMVTSFYPDYIAVEWQRNGQPESEDKYGTTPPQLDADGSYFLYSRLRVDRNSWQEGDTYTCVVMHEALHNHYTQKSTSKSAGK
notes: No linker
Kd [3]: 54.8 nM

B6: CTLA4 Fc bIgG1aWin (Fc fusion, canine)
chain: [sequence of about 120 residues not given]DPRCKTTCDCCPPPEAAGAPSVFIFPPKPKDTLTISGTPEVTCVVVDVGHDDPEVKFSWFVDDVEVNTATTKPREEQFNSTYRVVSALRIQHQDWTGGKEFKCKVHNEGLPAPIVRTISRTKGPAREPQVYVLAPPQEELSKSTVSLTCMVTSFYPDYIAVEWQRNGQPESEDKYGTTPPQLDADGSYFLYSRLRVDRNSWQEGDTYTCVVMHEALHNHYTQKSTSKSAGK
notes: No linker
Kd [3]: 7.45 nM | CDC EC50 Value [4]: 0.006 µg/mL

Where “and” joins values, the source holds several entries; their conditions need not be identical. Equal entries are not always repeated. Where two headings read alike, the source gives them in different places.
